Experimental data: PubChem BioAssay AID686979 (National Center for Advancing Translational Sciences (NCATS), 2013)
Where “and” joins values, the source holds several entries; their conditions need not be identical. Equal entries are not always repeated. Screen size: about 420,000 compounds; about 50,000 (12%) were called active. Inconclusive means that the source gave no clear call. Such entries were picked first, then a sample of the others. The call rests on the fitted dose curve; in most records, active means well fitted inhibition curve with a large enough effect; inconclusive means small, poorly fitted or top-dose-only effect; inactive means flat fitted curve, though single readings scatter. A potency beside an inconclusive call is a rough fit, not a confirmed value.

Assay: qHTS for Inhibitors of human tyrosyl-DNA phosphodiesterase 1 (TDP1): qHTS in cells in presence of CPT; further: nearly all actives have a fitted effect of over 55% in size
Conditions: chicken DT40 Tdp1-/-;hTDP1 cells + 20 nM CPT, ATP luminescence, 48 h
Outline: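 Chicken DT40 Tdp1-/- cells complemented with human TDP1, 400 cells/well, exposed to compounds plus 20 nM camptothecin for at least 48 h at 37 C; viability read as ATP content by CellTiter-Glo luminescence.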

[1] = activity change, negative = growth inhibition: at 46.2 µM (top of the series) unless noted
On the % scale 0 is the no-effect control and ±100 the full control effect; potency means the concentration at half of the fitted maximal effect; tags describe the fitted curve by direction and shape.

CCCCCCCSc1cc(OC)c(CCNC)cc1OC
Potency [1]: inconclusive: 29.1 µM [inhibitor, single point]

C=C(C)[C@H]1CN[C@H](C(=O)O)[C@H]1CC(=O)O
Potency [1]: inconclusive: 7.5 µM [inhibitor, partial curve, poor fit]

c1cnc(N2CC[C@@]3(CCCNC3)C2)nc1
Potency [1]: inconclusive: 18.4 µM [inhibitor, single point]

c1cc2n(c1)-c1c(ccc3c1OCO3)CNC2c1ccc2c(c1)OCO2 (configuration not stated)
Potency [1]: inconclusive: 20.6 µM [inhibitor, single point]

O=c1[nH]c(N2CCN(Cc3ccc4c(c3)OCO4)CC2)nc2c1CCC2
Potency [1]: inconclusive: 13 µM [inhibitor, partial curve, poor fit]

CCCOC(=O)COc1cc(C)cc2oc(=O)c3c(c12)CCC3
Potency [1]: inactive

CCN1CCN(c2nc3c(c(=O)[nH]2)CCC3)CC1
Potency [1]: inconclusive: 10.3 µM [inhibitor, partial curve, poor fit]

Cc1ccc(CN(Cc2ccccc2)C(=S)NCC(=O)N2CCC3(CC2)OCCO3)o1
Potency [1]: inconclusive: 29.1 µM [inhibitor, single point]

COc1ccc(Nc2cc(C)c3cc(NC(=O)c4ccccc4Cl)ccc3n2)cc1
Potency [1]: active: 20.6 µM

COc1ccc(OC)c(NC(=O)Cn2cc(C(=O)c3ccccc3)c3ccccc32)c1
Potency [1]: inconclusive: 29.1 µM [inhibitor, single point]

Fc1cccc(F)c1CN1CCN(Cc2c(F)cccc2F)CC1
Potency [1]: inactive

C[C@H](CO)N1C[C@H](C)[C@H](CN(C)S(=O)(=O)c2ccccc2)Oc2ccc(NC(=O)NC3CCCCC3)cc2CC1=O
Potency [1]: inconclusive: 29.1 µM [inhibitor, single point]

CCOCCCNC(=O)c1c[nH]c2ccc(S(=O)(=O)N(C)c3ccc(Cl)cc3F)cc2c1=O
Potency [1]: active: 23.1 µM

O=C(O)C1C2CCC(O2)C1C(=O)NC1CCCCC1 (configuration not stated)
Potency [1]: inactive

COc1cc(C(=O)OC2C[C@H]3CC[C@@H](C2)N3)ccc1O (some centres not stated)
Potency [1]: inactive

CC(C)c1ccc(N2C(=O)NC(=O)/C(=C/c3cnc(-c4ccccc4)nc3)C2=O)cc1
Potency [1]: inconclusive: 29.1 µM [inhibitor, single point]

CC1=Nc2ccccc2/C1=C/c1c(O)n(C)c(=O)[nH]c1=O
Potency [1]: inconclusive: 16.4 µM [inhibitor, single point]

CCn1cc(C(=O)NCCc2ccc(Cl)cc2)c(=O)c2cc(S(=O)(=O)N(C)C3CCCCC3)ccc21
Potency [1]: inconclusive: 29.1 µM [inhibitor, single point]

COC(=O)C1=C(c2ccc(OCc3ccccc3)cc2)C[C@@H]2CC[C@H]1N2C(=O)NCc1ccc([N+](=O)[O-])cc1
Potency [1]: active: 20.6 µM

Cc1ccc(CN2CCN(Cc3ccccc3F)CC2)cc1
Potency [1]: inconclusive: 29.1 µM [inhibitor, single point]

C[C@@H]1CCCCO[C@H](CN(C)Cc2ccccc2)[C@@H](C)CN([C@H](C)CO)C(=O)c2cc(NC(=O)c3ccccc3)ccc2O1
Potency [1]: inconclusive: 29.1 µM [inhibitor, single point]

CCN(c1ccccc1)S(=O)(=O)c1cccc(C(=O)NCc2cccnc2)c1
Potency [1]: inconclusive: 20.6 µM [inhibitor, single point]

CCCN(CCC)c1c([N+](=O)[O-])cc(C(F)(F)F)cc1[N+](=O)[O-]
Potency [1]: inactive

CSc1ccc(C(=O)C(C)(C)N2CCOCC2)cc1
Potency [1]: inactive

O=C(NC1CCCCC1)C1CCN(C(=O)c2ccc(-c3ccccc3)cc2)CC1
Potency [1]: inconclusive: 18.4 µM [inhibitor, single point]

O=c1cccc2n1CC1CC2CN2CCCC[C@H]12 (some centres not stated)
Potency [1]: inactive

N#CCCn1cc(C(=O)Nc2ccc(F)cc2)c(-c2ccccc2)n1
Potency [1]: inactive

CSc1ccc(CN2CCN(C(=O)COc3ccc(C)cc3)CC2)cc1
Potency [1]: inconclusive: 29.1 µM [inhibitor, single point]

CCCN(c1ccc(C(C)C)cc1)S(=O)(=O)c1ccc2c(c1)CCN2C(=O)CC
Potency [1]: inconclusive: 7.31 µM [inhibitor, partial curve]

CC(C)N(C(=O)CCl)c1ccccc1
Potency [1]: active: 5.8 µM and active: 6.51 µM

CCOc1ccc2nc(NC(=O)c3cccn(Cc4ccccc4)c3=O)sc2c1
Potency [1]: inconclusive: 13 µM [inhibitor, partial curve]

O=C(OCc1c(-c2ccccc2)ncc2ccccc12)c1ccc(C(F)(F)F)cc1
Potency [1]: inconclusive: 20.6 µM [inhibitor, single point]

CCOc1ccc(C(=O)Nc2cc(NC(=O)c3ccco3)ccc2OC)cc1Br
Potency [1]: inconclusive: 8.2 µM [inhibitor, partial curve]

Cc1[nH]nc2c1C1(CCC(c3ccccc3)CC1)C(C#N)=C(N)O2 (configuration not stated)
Potency [1]: inconclusive: 5.8 µM [inhibitor, partial curve, poor fit]

NC(=O)Nc1ccc(C(=O)OCC(=O)Nc2ccc(Cl)cc2C(=O)c2ccccc2)cc1
Potency [1]: inactive

O=C(c1cccc2ccccc12)C1CCCN(C2CCC2)C1 (configuration not stated)
Potency [1]: inactive

CCOP(=O)(OCC)OCC
Potency [1]: inactive

Cc1nc2cc([N+](=O)[O-])ccc2c(=O)n1-c1cccc(Br)c1
Potency [1]: inconclusive: 29.1 µM [inhibitor, single point]

Cc1cccc(NP(=O)(Oc2ccccc2F)Oc2ccccc2F)c1
Potency [1]: inconclusive: 25.9 µM [inhibitor, single point]

CC(=O)Nc1ccccc1C(=O)OCC(=O)c1ccc2ccccc2c1
activity change, negative = growth inhibition [1]: inconclusive: -31.2% [inhibitor]

COC(=O)C1=C(c2ccc(-c3ccccc3)c(F)c2)C[C@@H]2CC[C@H]1N2C(=O)NCc1ccc(F)cc1
Potency [1]: active: 16.4 µM

Cc1ccc(-n2nc(C)cc2NC(=O)COc2cc(C)cc3oc(=O)c4c(c23)CCC4)cc1
Potency [1]: inconclusive: 25.9 µM [inhibitor, partial curve]

O=C(Nc1ccc2c(c1)OCCO2)c1cccn(Cc2cccc(F)c2)c1=O
Potency [1]: active: 20.6 µM

O=c1[nH]c(=S)[nH]c(O)c1N=Nc1cc2c(cc1[N+](=O)[O-])OCO2
Potency [1]: inconclusive: 18.4 µM [inhibitor, single point]

CC(C)(C)C(=O)O[C@H]1CC[C@@]2(C)C(=CC(=O)C3C2CC[C@]2(C)C(=O)[C@H](O)CC32)C1 (some centres not stated)
Potency [1]: inconclusive: 18.4 µM [inhibitor, single point]

Oc1ccc(-[n+]2c(-c3ccccc3)cc(-c3ccccc3)cc2-c2ccccc2)cc1
Potency [1]: active: 1.16 µM

C=CC[C@]1(O)CC[C@H]2[C@@H]3CCC4=CCCC[C@@H]4[C@H]3CC[C@@]21C
Potency [1]: inactive

Cc1onc(-c2ccccc2Cl)c1C(=O)NCc1ccc2c(c1)cc(C)n2C
Potency [1]: inconclusive: 9.2 µM [inhibitor, partial curve]

COC(=O)C1=C(c2cccc(OC)c2OC)C[C@@H]2CC[C@H]1N2C(=O)NCC1CC1
Potency [1]: inactive

CN1C(=O)C(=Cc2cn(CC(=O)N3CCCC3)c3ccccc23)C(=O)N(C)C1=O
Potency [1]: inactive

O=C(CCCc1nc(-c2ccc(Cl)cc2)no1)NCC1CCCO1 (configuration not stated)
Potency [1]: inconclusive: 16.4 µM [inhibitor, partial curve]

CC[C@H](C)[C@@H]1NC(=O)CNC(=O)c2csc(n2)[C@H](C(C)(C)O)OC(=O)C(C)(C)[C@H](CCCC(C)(Cl)Cl)OC(=O)c2csc1n2
Potency [1]: active: 0.0517 µM

CN(C)C1C(=O)C(C(N)=O)=C(O)[C@@]2(O)C(=O)C3=C(O)c4c(O)cccc4[C@@](C)(O)C3[C@H](O)C12 (some centres not stated)
Potency [1]: active: 8.41 µM

C=CCN1C(=O)NC(=O)/C(=C/c2ccc(OC)c(CSc3ccccn3)c2)C1=O
Potency [1]: inconclusive: 29.1 µM [inhibitor, single point]

COc1nc2ccccc2nc1N1CC1
Potency [1]: active: 0.92 µM

Nc1nc(N)c2nc(CNc3ccc(C(=O)N[C@@H](CCC(=O)O)C(=O)O)cc3)cnc2n1
Potency [1]: inconclusive: 25.9 µM [inhibitor, single point]

COc1ccc(OC)c(C(Nc2ccccc2)P(=O)(OC(C)C)OC(C)C)c1 (configuration not stated)
Potency [1]: inconclusive: 25.9 µM [inhibitor, single point]

CC(C)COP(=O)(c1ccc(N(C)C)cc1)C(Nc1ccccc1)c1ccccc1 (configuration not stated)
Potency [1]: inconclusive: 29.1 µM [inhibitor, single point]

CCOC(=O)c1ncn2c1CN(C)C(=O)c1cc(F)ccc1-2
Potency [1]: inconclusive: 4.11 µM [inhibitor, partial curve, poor fit]
activity change, negative = growth inhibition [1]: inconclusive: -33% [inhibitor]
activity change, negative = growth inhibition (at 46.2 µM (top of the series)): inactive: -23%

CCC(=O)N1N=C2C3CCN(CC3)C2C1c1ccccc1 (configuration not stated)
Potency [1]: inactive

O=NN(CCCl)C(=O)NCCCl
Potency [1]: inactive and inconclusive: 29.1 µM [inhibitor, single point] and inconclusive: 9.2 µM [inhibitor, partial curve]

CC(C)Oc1cccc(NC(=O)c2cccn(Cc3ccc4c(c3)OC(F)(F)O4)c2=O)c1
Potency [1]: inconclusive: 29.1 µM [inhibitor, partial curve, poor fit]

O=[N+]([O-])c1ccc(N2CCCC2)cc1N/N=C1\CN2CCC1CC2
Potency [1]: inconclusive: 29.1 µM [inhibitor, single point]

O=c1[nH]c(=O)n(Cc2ccc(F)cc2)c(O)c1C=Nc1ccc(Cl)cc1
Potency [1]: inconclusive: 29.1 µM [inhibitor, single point]

CC(=O)O[C@@H]1/C=C/[C@](C)(O)C[C@@H](C)C/C=C/[C@H]2[C@H](O)[C@@](C)(O)[C@@H](C)[C@H]3[C@H](Cc4ccccc4)NC(=O)[C@@]312
Potency [1]: inconclusive: 25.9 µM [inhibitor, single point]
